# Data: article PMC4242493
# This is one part of the list. The list includes weakly bound sequences.
# Target: MaxL homodimer (UniProt P61244)
# Assay: universal protein-binding microarray (PBM)
# Settings: PBS-based mixture, 10 nM His-tagged protein dimer, 2% milk, 200 ng/uL BSA, 50 ng/uL salmon testes DNA, 0.02% TX-100; detection with Alexa 488 anti-His …; high values mean tight binding; most listed sequences are background and not binding sites; double strand, one strand shown
# UniProt P61244, sequence (P61244 whole entry): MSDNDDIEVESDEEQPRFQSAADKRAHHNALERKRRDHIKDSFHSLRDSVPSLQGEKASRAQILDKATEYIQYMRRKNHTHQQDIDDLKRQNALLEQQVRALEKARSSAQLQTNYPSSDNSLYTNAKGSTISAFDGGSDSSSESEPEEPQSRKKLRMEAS
row,Sequence,binding signal (normalized occupancy)
1,CGTCAACA,0.0779
2,ACTCAGCG,0.0701
3,ACTTGTAG,0.073
4,GGACTCGA,0.0744
5,AACGGTGC,0.0733
6,CGCACGTC,0.0785
7,CATTAGGA,0.0775
8,TCTAAGAA,0.075
9,AGATGAGA,0.081
10,AACACCTA,0.0789
11,ATCCGCAT,0.0856
12,ATGTACGG,0.0785
13,TCTTACAA,0.0765
14,ATCGCTTC,0.0694
15,GTTTCAAA,0.076
16,ACTACCGG,0.0755
17,AGGTCCCC,0.0701
18,CTCGGAAA,0.067
19,CCGCAAAA,0.0702
20,ACGACTAG,0.0769
21,AAATAGCA,0.0843
22,ATTACCAG,0.0713
23,TGATTGCA,0.0824
24,GTTCCTTA,0.0705
25,GCCATCAA,0.0778

row,Sequence,binding signal (normalized occupancy)
1,GTAGGAAA,0.0761
2,CGCGAATC,0.0735
3,GGCAGAGA,0.0664
4,AGGATTCG,0.0775
5,CTCTGCGA,0.0676
6,CATAGCCG,0.073
7,TGACACAA,0.0798
8,ATCAAAAC,0.0742
9,CCCTGTGA,0.0807
10,ACAGGAAG,0.0715
11,AGAGTGAG,0.0776
12,GTACACAA,0.0805
13,AATTACAA,0.0816
14,ATGACTAG,0.0755
15,AACCGTTA,0.0771
16,CGCAGTTC,0.0712
17,CGGCGCAA,0.0711
18,GGCGGCCA,0.075
19,GTGTTTTA,0.0758
20,ATTAACAC,0.0839
21,ATACAGAA,0.0789
22,CAAAATAA,0.0766
23,TGAAGCCA,0.0709
24,GGGGTACC,0.0706
25,CTAAGTGA,0.0719

row,Sequence,binding signal (normalized occupancy)
1,CTCTGAGA,0.0756
2,AGAGACGC,0.0751
3,AAGGGCAC,0.0706
4,AAAGGAGC,0.0705
5,AGGGGTTA,0.0759
6,CATCGCAA,0.0733
7,AGCAGGGC,0.0712
8,ACTGGGGA,0.0716
9,AAATGGAT,0.0798
10,CCCTATGC,0.0769
11,AGAGACTC,0.0733
12,ATTTGCAC,0.0853
13,AAGAGTTC,0.0711
14,CCTGAGCA,0.0752
15,GAAGTGGC,0.0724
16,CGGAGTGA,0.0696
17,CCAACGCA,0.0789
18,AGTTAAAA,0.0725
19,ACAGACCA,0.0727
20,CAGTGGGC,0.069
21,CCCAAGGC,0.0695
22,ACACAAAG,0.0736
23,TTTAAAAA,0.0713
24,CACTAAGG,0.0761
25,ACGACGAT,0.0725

row,Sequence,binding signal (normalized occupancy)
1,ACCTGCTA,0.0768
2,GCTCGGCA,0.0724
3,CATATCTA,0.0831
4,CTCGGCAG,0.0663
5,AAGCTACC,0.0714
6,ACGTTTCT,0.079
7,CCGACTGA,0.0699
8,CTGTGCTA,0.0696
9,CGATAGCC,0.0708
10,AACTTTAC,0.0691
11,ATCGTGAC,0.0839
12,GGCGGCAA,0.0675
13,ATCAGGTC,0.0755
14,CTTAACCA,0.0834
15,CAGTTCTA,0.0733
16,ATCCGACC,0.0741
17,TACGAGGA,0.0793
18,ACAGATGT,0.0823
19,TCCACCGA,0.0714
20,AGCAGAGG,0.0694
21,GACCAACA,0.0715
22,ACTACGAC,0.0671
23,AGCACGCA,0.0909
24,AAACGACA,0.076
25,AGGCCCTA,0.0692

row,Sequence,binding signal (normalized occupancy)
1,AGCCCGGG,0.0644
2,GCGCCTTA,0.0728
3,ATACATCG,0.0796
4,ATCGGTGG,0.0729
5,TGCGTTAA,0.0729
6,ATGGATTG,0.0798
7,ACGGACTG,0.0704
8,ATCCAAAT,0.0802
9,GCGTGATA,0.1
10,AAATAGGT,0.0809
11,AATTTCCG,0.0694
12,AGCGTAAG,0.0684
13,CAAAGAGC,0.0689
14,ATGCCATG,0.0897
15,CACCCCTC,0.0876
16,AGAAACCA,0.0778
17,CGGATTTA,0.0745
18,CGCTCACC,0.0763
19,CGAACGGA,0.066
20,TCCTAAGA,0.0773
21,GGGCAGCA,0.0719
22,ACGGTGAT,0.0774
23,GTCGGGGA,0.074
24,AGGTCAAG,0.0756
25,GAAGATGA,0.0785

row,Sequence,binding signal (normalized occupancy)
1,GCCCGCCA,0.0684
2,TGGATCCA,0.0759
3,AGAGCCAT,0.0832
4,CGGTGGAA,0.0725
5,AGGCGAAC,0.0698
6,GACTTATC,0.0755
7,AAGCGTAT,0.0722
8,GATTATAA,0.0749
9,CACCCCGG,0.0778
10,AATTGTCC,0.0765
11,CCGTCCCG,0.0665
12,CCAAGGGA,0.0721
13,CTGTATCC,0.0783
14,AACGAAAG,0.068
15,AAGTTAAT,0.078
16,GTGGGTCA,0.0811
17,GGGGAACC,0.0765
18,GCCTCGCA,0.0754
19,AACAAAGT,0.0719
20,GGTAGTCA,0.0743
21,CGCCCAAC,0.0729
22,CAGAGAAC,0.0692
23,GCATATAC,0.08
24,CCCAAGCG,0.0709
25,CTTTTCGC,0.0706

row,Sequence,binding signal (normalized occupancy)
1,TGAGCTAA,0.0823
2,GTCCGCGA,0.0687
3,CGCAATCC,0.0789
4,AGAACCTA,0.0874
5,CCCCTTAC,0.0812
6,ATTCGCTG,0.0739
7,TGCAGCCA,0.0797
8,CCGTCCTC,0.0798
9,AAGTGAGT,0.0741
10,ATATGTAG,0.0877
11,AGCCTTGA,0.0712
12,TACAGACA,0.0803
13,ACCTGTGG,0.0787
14,ATGGGCGC,0.0724
15,ACAGAATG,0.076
16,CCATAGTC,0.0746
17,ATCAATAC,0.0782
18,CATACTGC,0.076
19,AACGGTTC,0.0714
20,ATTCCTGG,0.0767
21,GATTCATA,0.0895
22,GCTCTGTA,0.0761
